In the supplement of paper PMC11876631:
± gives the standard deviation of the averaged measurements. Laboratory Escherichia coli strains with one amino-acid change in an essential protein, pooled on minimal glucose agar with carbenicillin or gentamicin at twice the control MIC (plus kanamycin and chloramphenicol for the plasmids), 48 h. Fold change of barcode share against drug-free plates; higher = less susceptible. Active = above 20 in both replicates (the paper's putatively resistant). '<' = one read or none on drug, '>' = one read or none on a drug-free plate. Shares are relative, so most strains fall below 1 when a few take over. Listed are strains with at least 15 reads on both drug-free plates, and hits; most hits rest on fewer reference reads. Replicate rank correlation about 0.5. Edits are read from barcodes.

Molecular target: Escherichia coli (laboratory strain)
Assay: barcode share on antibiotic plates over drug-free plates; higher = less susceptible
Method: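 A pool of E. coli strains, each edited to carry one amino-acid change in an essential protein, was grown for 48 h on minimal glucose agar with or without antibiotic; strain barcodes were sequenced; mean of two replicates.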

[1] = antibiotic: carbenicillin, 2× MIC (3.1 µg/mL)
[2] = antibiotic: gentamicin, 2× MIC (MIC 0.45 µg/mL)

B1: ispD V11A (protein)
chain: MATTHLDVCAAVPAAGFGRRMQTECPKQYLSIGNQTILEHSVHALLAHPRVKRVVIAISPGDSRFAQLPLANHPQITVVDGGDERADSVLAGLKAAGDAQWVLVHDAARPCLHQDDLARLLALSETSRTGGILAAPVRDTMKRAEPGKNAIAHTVDRNGLWHALTPQFFPRELLHDCLTRALNEGATITDEASALEYCGFHPQLVEGRADNIKVTRPEDLALAEFYLTRTIHQENT
fold change of barcode share [1]: 0.211 ± 0.025
fold change of barcode share [2]: 0.00159 ± 0.00078

B2: ispD V11P (protein)
chain: MATTHLDVCAPVPAAGFGRRMQTECPKQYLSIGNQTILEHSVHALLAHPRVKRVVIAISPGDSRFAQLPLANHPQITVVDGGDERADSVLAGLKAAGDAQWVLVHDAARPCLHQDDLARLLALSETSRTGGILAAPVRDTMKRAEPGKNAIAHTVDRNGLWHALTPQFFPRELLHDCLTRALNEGATITDEASALEYCGFHPQLVEGRADNIKVTRPEDLALAEFYLTRTIHQENT
fold change of barcode share [1]: 0.369 ± 0.19
fold change of barcode share [2]: 0.0287 ± 0.021

B3: ispD V12A (protein)
chain: MATTHLDVCAVAPAAGFGRRMQTECPKQYLSIGNQTILEHSVHALLAHPRVKRVVIAISPGDSRFAQLPLANHPQITVVDGGDERADSVLAGLKAAGDAQWVLVHDAARPCLHQDDLARLLALSETSRTGGILAAPVRDTMKRAEPGKNAIAHTVDRNGLWHALTPQFFPRELLHDCLTRALNEGATITDEASALEYCGFHPQLVEGRADNIKVTRPEDLALAEFYLTRTIHQENT
fold change of barcode share [1]: 0.179 ± 0.02
fold change of barcode share [2]: 0.00572 ± 0.0067

B4: ispD V55A (protein)
chain: MATTHLDVCAVVPAAGFGRRMQTECPKQYLSIGNQTILEHSVHALLAHPRVKRVAIAISPGDSRFAQLPLANHPQITVVDGGDERADSVLAGLKAAGDAQWVLVHDAARPCLHQDDLARLLALSETSRTGGILAAPVRDTMKRAEPGKNAIAHTVDRNGLWHALTPQFFPRELLHDCLTRALNEGATITDEASALEYCGFHPQLVEGRADNIKVTRPEDLALAEFYLTRTIHQENT
fold change of barcode share [1]: 0.335 ± 0.14
fold change of barcode share [2]: 0.00769 ± 0.0054

B5: ispD V55W (protein)
chain: MATTHLDVCAVVPAAGFGRRMQTECPKQYLSIGNQTILEHSVHALLAHPRVKRVWIAISPGDSRFAQLPLANHPQITVVDGGDERADSVLAGLKAAGDAQWVLVHDAARPCLHQDDLARLLALSETSRTGGILAAPVRDTMKRAEPGKNAIAHTVDRNGLWHALTPQFFPRELLHDCLTRALNEGATITDEASALEYCGFHPQLVEGRADNIKVTRPEDLALAEFYLTRTIHQENT
fold change of barcode share [1]: 0.296 ± 0.045
fold change of barcode share [2]: < 0.00836

B6: ispD V55Q (protein)
chain: MATTHLDVCAVVPAAGFGRRMQTECPKQYLSIGNQTILEHSVHALLAHPRVKRVQIAISPGDSRFAQLPLANHPQITVVDGGDERADSVLAGLKAAGDAQWVLVHDAARPCLHQDDLARLLALSETSRTGGILAAPVRDTMKRAEPGKNAIAHTVDRNGLWHALTPQFFPRELLHDCLTRALNEGATITDEASALEYCGFHPQLVEGRADNIKVTRPEDLALAEFYLTRTIHQENT
fold change of barcode share [1]: 0.412 ± 0.14
fold change of barcode share [2]: 0.338 ± 0.17

B7: ispD I56A (protein)
chain: MATTHLDVCAVVPAAGFGRRMQTECPKQYLSIGNQTILEHSVHALLAHPRVKRVVAAISPGDSRFAQLPLANHPQITVVDGGDERADSVLAGLKAAGDAQWVLVHDAARPCLHQDDLARLLALSETSRTGGILAAPVRDTMKRAEPGKNAIAHTVDRNGLWHALTPQFFPRELLHDCLTRALNEGATITDEASALEYCGFHPQLVEGRADNIKVTRPEDLALAEFYLTRTIHQENT
fold change of barcode share [1]: 0.254 ± 0.073
fold change of barcode share [2]: < 0.00342

B8: ispD L103A (protein)
chain: MATTHLDVCAVVPAAGFGRRMQTECPKQYLSIGNQTILEHSVHALLAHPRVKRVVIAISPGDSRFAQLPLANHPQITVVDGGDERADSVLAGLKAAGDAQWVAVHDAARPCLHQDDLARLLALSETSRTGGILAAPVRDTMKRAEPGKNAIAHTVDRNGLWHALTPQFFPRELLHDCLTRALNEGATITDEASALEYCGFHPQLVEGRADNIKVTRPEDLALAEFYLTRTIHQENT
fold change of barcode share [1]: 0.3569 ± 0.002
fold change of barcode share [2]: < 0.00674

B9: ispD L103W (protein)
chain: MATTHLDVCAVVPAAGFGRRMQTECPKQYLSIGNQTILEHSVHALLAHPRVKRVVIAISPGDSRFAQLPLANHPQITVVDGGDERADSVLAGLKAAGDAQWVWVHDAARPCLHQDDLARLLALSETSRTGGILAAPVRDTMKRAEPGKNAIAHTVDRNGLWHALTPQFFPRELLHDCLTRALNEGATITDEASALEYCGFHPQLVEGRADNIKVTRPEDLALAEFYLTRTIHQENT
fold change of barcode share [1]: 0.164 ± 0.081
fold change of barcode share [2]: < 0.0114
